# Measured values: the supplement of paper PMC8728848
# Some of the results follow.
# Key:
# Assay in all cases: glycan array binding signal (z-score within array); higher = stronger binding
# Conditions in all cases: glycan notation: IUPAC condensed, linker removed
# [1] = target: Fuc(a1-3)[Gal(b1-4)]GlcNAc
# Procedure, shortened: (§1)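 The Consortium for Functional Glycomics database supplied 3228 glycan arrays, of which those lacking an available protein sequence were dropped. The binding signal, a within-array Z-score, was averaged across arrays of the same protein sequence and across linkers. Negative scores can be read as non-binding.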
# [2] = target: Fuc(a1-3)[Gal(b1-4)]GlcNAc(b1-4)Gal(b1-4)[Fuc(a1-3)]GlcNAc
# Procedure, shortened: as §1
# [3] = target: Fuc(a1-3)[Gal(b1-4)]GlcNAc(b1-4)Gal(b1-4)[Fuc(a1-3)]GlcNAc(b1-4)Gal(b1-4)[Fuc(a1-3)]GlcNAc
# Procedure, shortened: as §1
# [4] = target: Fuc(a1-3)[Gal3S(b1-4)]GlcNAc
# Procedure, shortened: as §1
# [5] = target: Fuc(a1-3)[GalNAc(b1-4)]GlcNAc
# Procedure, shortened: as §1
# Fuc(a1-4)GlcNAc = target: Fuc(a1-4)GlcNAc
# Procedure, shortened: as §1
# Fuc(b1-3)GlcNAc = target: Fuc(b1-3)GlcNAc
# Procedure, shortened: as §1
# Gal(a1-2)Gal = target: Gal(a1-2)Gal
# Procedure, shortened: as §1
# Gal(a1-3)Gal = target: Gal(a1-3)Gal
# Procedure, shortened: as §1
# Gal(a1-3)Gal(b1-3)GlcNAc = target: Gal(a1-3)Gal(b1-3)GlcNAc
# Procedure, shortened: as §1
# Gal(a1-3)Gal(b1-4)Glc = target: Gal(a1-3)Gal(b1-4)Glc
# Procedure, shortened: as §1
# Gal(a1-3)Gal(b1-4)GlcNAc = target: Gal(a1-3)Gal(b1-4)GlcNAc
# Procedure, shortened: as §1
# [6] = target: Gal(a1-3)Gal(b1-4)[Fuc(a1-3)]GlcNAc
# Procedure, shortened: as §1
# Gal(a1-3)GalNAc = target: Gal(a1-3)GalNAc
# Procedure, shortened: as §1
# [7] = target: Gal(a1-3)[Gal(a1-4)]Gal(b1-4)GlcNAc
# Procedure, shortened: as §1
# Gal(a1-4)Gal(b1-4)Glc = target: Gal(a1-4)Gal(b1-4)Glc
# Procedure, shortened: as §1
# Gal(a1-4)Gal(b1-4)GlcNAc = target: Gal(a1-4)Gal(b1-4)GlcNAc
# Procedure, shortened: as §1
# Gal(a1-4)GlcNAc = target: Gal(a1-4)GlcNAc
# Procedure, shortened: as §1
# Gal(a1-6)Glc = target: Gal(a1-6)Glc
# Procedure, shortened: as §1
# Gal(b1-2)Gal = target: Gal(b1-2)Gal
# Procedure, shortened: as §1
# Gal(b1-3)Gal = target: Gal(b1-3)Gal
# Procedure, shortened: as §1
# Gal(b1-3)GalNAc = target: Gal(b1-3)GalNAc
# Procedure, shortened: as §1
# [8] = target: Gal(b1-3)GalNAc(b1-3)Gal(a1-4)Gal(b1-4)Glc
# Procedure, shortened: as §1
# [9] = target: Gal(b1-3)GalNAc(b1-4)Gal(b1-4)Glc
# Procedure, shortened: as §1
# [10] = target: Gal(b1-3)GalNAc(b1-4)[Neu5Ac(a2-3)]Gal(b1-4)Glc
# Procedure, shortened: as §1
# Gal(b1-3)GlcNAc = target: Gal(b1-3)GlcNAc
# Procedure, shortened: as §1
# [11] = target: Gal(b1-3)GlcNAc(b1-3)Gal(b1-4)Glc
# Procedure, shortened: as §1
# [12] = target: Gal(b1-3)GlcNAc(b1-3)Gal(b1-4)GlcNAc
# Procedure, shortened: as §1
# [13] = target: Gal(b1-3)[Fuc(a1-4)]GlcNAc
# Procedure, shortened: as §1
# [14] = target: Gal(b1-3)[Fuc(a1-4)]GlcNAc(b1-3)Gal(b1-4)GlcNAc
# Procedure, shortened: as §1
# [15] = target: Gal(b1-3)[Fuc(a1-4)]GlcNAc(b1-3)Gal(b1-4)[Fuc(a1-3)]GlcNAc
# Procedure, shortened: as §1
# [16] = target: Gal(b1-3)[GlcNAc(b1-6)]GalNAc
# Procedure, shortened: as §1
# [17] = target: Gal(b1-3)[Neu5Ac(a2-6)]GalNAc
# Procedure, shortened: as §1
# [18] = target: Gal(b1-3)[Neu5Ac(a2-6)]GlcNAc(b1-6)Gal(b1-4)Glc
# Procedure, shortened: as §1
# [19] = target: Gal(b1-3)[Neu5Ac(b2-6)]GalNAc
# Procedure, shortened: as §1
# [20] = target: Gal(b1-4)GalNAc(a1-3)[Fuc(a1-2)]Gal(b1-4)GlcNAc
# Procedure, shortened: as §1
# [21] = target: Gal(b1-4)GalNAc(b1-3)[Fuc(a1-2)]Gal(b1-4)GlcNAc
# Procedure, shortened: as §1
binder,measurement,setting,value
FaeGac (Escherichia coli) (protein) WMTGDFNGSVDIGGSITADDYRQKWEWKVGTGLNGFGNVLNDLTNGGTKLTITVTGNKPILLGRTKEAFATPVTGGVDGIPHIAFTDYEGASVVLRKPDGETNKNGLAYFVLPMKNAGGTKVGSVKVNASYAGVLGRGGVTSADGELLSLFADGLSSIFYGGLPRGSELSAGSAAAARTKLFGSLSRDDILGQIQRVNANVTSLVDVAGSYRENMEYTDGNVVSAAYALGIANGQTIEATFNQAVTTSTQWSAPLNVAITYY,glycan array binding signal (z-score),[1],-0.598
same,glycan array binding signal (z-score),[2],0.664
same,glycan array binding signal (z-score),[3],-0.479
same,glycan array binding signal (z-score),[4],-0.821
same,glycan array binding signal (z-score),[5],1.98
same,glycan array binding signal (z-score),Fuc(a1-4)GlcNAc,1.32
same,glycan array binding signal (z-score),Fuc(b1-3)GlcNAc,-0.413
same,glycan array binding signal (z-score),Gal(a1-2)Gal,-0.535
same,glycan array binding signal (z-score),Gal(a1-3)Gal,-0.887
same,glycan array binding signal (z-score),Gal(a1-3)Gal(b1-3)GlcNAc,-0.126
same,glycan array binding signal (z-score),Gal(a1-3)Gal(b1-4)Glc,-0.126
same,glycan array binding signal (z-score),Gal(a1-3)Gal(b1-4)GlcNAc,0.712
same,glycan array binding signal (z-score),[6],-0.168
same,glycan array binding signal (z-score),Gal(a1-3)GalNAc,0.679
same,glycan array binding signal (z-score),[7],-0.837
same,glycan array binding signal (z-score),Gal(a1-4)Gal(b1-4)Glc,0.242
same,glycan array binding signal (z-score),Gal(a1-4)Gal(b1-4)GlcNAc,0.008
same,glycan array binding signal (z-score),Gal(a1-4)GlcNAc,-0.505
same,glycan array binding signal (z-score),Gal(a1-6)Glc,0.835
same,glycan array binding signal (z-score),Gal(b1-2)Gal,-0.3
same,glycan array binding signal (z-score),Gal(b1-3)Gal,-0.009
same,glycan array binding signal (z-score),Gal(b1-3)GalNAc,0.248
same,glycan array binding signal (z-score),[8],-0.2
same,glycan array binding signal (z-score),[9],-0.238
same,glycan array binding signal (z-score),[10],-0.402
same,glycan array binding signal (z-score),Gal(b1-3)GlcNAc,-0.584
same,glycan array binding signal (z-score),[11],0.12
same,glycan array binding signal (z-score),[12],-0.916
same,glycan array binding signal (z-score),[13],-0.535
same,glycan array binding signal (z-score),[14],-0.5
same,glycan array binding signal (z-score),[15],-0.529
same,glycan array binding signal (z-score),[16],0.374
same,glycan array binding signal (z-score),[17],0.901
same,glycan array binding signal (z-score),[18],-0.855
same,glycan array binding signal (z-score),[19],0.148
same,glycan array binding signal (z-score),[20],-0.444
same,glycan array binding signal (z-score),[21],-0.721
